Results are given in words; binding and its absence hold for the method and conditions named. For part of these data: In cells and extracts the contact can be indirect. Some binding calls cover weakened binding; strength is not graded here. For part of these data: Tags and fused reporters may be left off the sequences shown.

Sequences of proteins named here, by UniProt entry; tags and fusion partners are left off. Residues count along the entry.
UniProt P70581, residues 239-415: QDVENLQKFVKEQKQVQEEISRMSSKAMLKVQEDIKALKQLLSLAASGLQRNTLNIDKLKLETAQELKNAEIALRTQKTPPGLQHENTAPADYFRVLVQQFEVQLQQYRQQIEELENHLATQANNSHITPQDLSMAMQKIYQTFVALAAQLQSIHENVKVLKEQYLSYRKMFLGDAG

For assay [1], the target named is His6-tagged Rattus norvegicus Nup58 (239-415) (Rattus norvegicus) (UniProt P70581). The assay is described as follows: pull-down; Ni-NTA agarose pull-down through His6-tagged Nup58 or ctNup49, co-expressed with rNup62 and rNup54 from one polycistronic plasmid in E. coli; identical conditions for both constructs.
In assay [2] the target is Rattus norvegicus Nup58 (239-415), His6 tag cleaved (Rattus norvegicus) (UniProt P70581). Briefly: SEC; Superdex 200 10/300 GL on the Ni-NTA eluate after thrombin cleavage of the His6 tag; Tris-HCl pH 8, 250 mM NaCl, 0.5 mM EDTA, 1 mM DTT, 4°C; peak fractions on 12% SDS-PAGE; both purified. A general note: SEC sorts molecules by how far they enter the pores of the column.

Assay [3] addresses T1, Chaetomium thermophilum Nup49 (246-470), His6 tag cleaved (Chaetomium thermophilum) (UniProt G0S4X2).
T1 sequence: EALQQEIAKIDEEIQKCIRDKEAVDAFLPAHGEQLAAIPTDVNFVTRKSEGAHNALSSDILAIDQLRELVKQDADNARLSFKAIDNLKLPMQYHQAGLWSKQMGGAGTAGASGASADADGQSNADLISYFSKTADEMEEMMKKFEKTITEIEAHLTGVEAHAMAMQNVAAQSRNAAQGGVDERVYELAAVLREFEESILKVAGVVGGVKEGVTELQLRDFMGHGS
Described as above.

B1: Rattus norvegicus Nup54 (332-510) (domain or fragment, UniProt P70582 332-510)
chain: GFKELLRRLKVQDQMTKQHQTRLDIISEDISELQKNQTTTMAKIAQYKRKLMDLSHRTLQVLIKQEIQRKSGYAIQAEEEQLRVQLDTIQGELNAPTQFKGRLNELMSQIRMQNHFGAVKSEEKYYIDADLLREIKQHLKQQQEGLSHLISIIKDDLEDIKLVEHGLNETIHSRGGVFS
Turning to B1, the values for the binding result in assay [1], in assay [2] and in assay [3] were “binds”, “binds” and “no binding”, respectively.

B2: Rattus norvegicus Nup62 (322-525) (domain or fragment, UniProt P17955 322-525)
chain: AVGTTTGPAMTYAQLESLINKWSLELEDQERHFLQQATQVNAWDRTLIENGEKITSLHREVEKVKLDQKRLDQELDFILSQQKELEDLLSPLEESVKEQSGTIYLQHADEEREKTYKLAENIDAQLKRMAQDLKDIIEHLNMAGGPADTSDPLQQICKILNAHMDSLQWVDQSSALLQRRVEEASRVCESRRKEQERSLRIAFD
For B2, the values for the binding result in assay [1], in assay [2] and in assay [3] were “binds”, “binds” and “no binding”, respectively.

The record behind these values is PMC6371224.
